Experimental data as given in PubChem BioAssay AID1346428 (National Center for Advancing Translational Sciences (NCATS), 2018).
Screen size: about 48,000 compounds; about 1,200 (2.5%) were called active. Roughly 2% stayed inconclusive and do not appear here.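 The calls were made as follows: active = activation of at least 60% and not above a set upper limit (about 1 call in 100 departs from these limits); inconclusive = activation of 40% to 60%, or above that upper limit; inactive = activation under 40%.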 The list shows a part of the results.
Also: 0% is about no effect.

These molecules were tested against Probable G-protein coupled receptor 32 (Homo sapiens) (UniProt O75388) (assay: qHTS for Agonists of Human Resolvin D1 Receptor DRV1). Details: CHO-K1 GPR32 beta-arrestin PathHunter luminescence, 90 min; at 76.9 µM; active compounds read high; zero percent set by DMSO-only wells.
Sequence of UniProt O75388 (O75388 whole entry, looked up): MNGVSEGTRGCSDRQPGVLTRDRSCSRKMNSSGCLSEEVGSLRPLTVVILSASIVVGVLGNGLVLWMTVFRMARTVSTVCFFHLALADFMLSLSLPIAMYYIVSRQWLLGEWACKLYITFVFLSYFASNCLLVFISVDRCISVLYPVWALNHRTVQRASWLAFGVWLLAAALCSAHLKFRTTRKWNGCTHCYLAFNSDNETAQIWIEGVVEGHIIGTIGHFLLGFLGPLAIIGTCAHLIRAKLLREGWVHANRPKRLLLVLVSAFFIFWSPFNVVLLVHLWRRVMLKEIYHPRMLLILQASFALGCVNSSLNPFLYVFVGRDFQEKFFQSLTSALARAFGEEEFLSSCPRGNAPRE
Procedure, shortened: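 Readings come from a cell-based beta-arrestin complementation format: CHO-K1 GPR32 stable cells (2,500/well) treated 90 min with compounds, then beta-Gal substrate added for 1 h before chemiluminescence imaging.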
With `CC(=O)N1CCN(C(=O)C(=O)Nc2c3c(nn2-c2ccc(Cl)cc2)CSC3)CC1` the activation was inactive: -1.66%. `CCc1ccc(OCC(=O)Nc2cc3oc4ccccc4c3cc2OC)c(Br)c1` was tested, and the activation was inactive: 13.3%. `CCOc1ccc2c(c1)c(=O)c(S(=O)(=O)c1ccc(CC)cc1)cn2CC` was tested, and the activation was inactive: -6.86%. For `CC1CCN(C(=O)CN2c3ccc(Br)cc3-c3ccccc3S2(=O)=O)CC1`, the activation was inactive: -19.9%. `O=C(COc1ccccc1)Nc1c(C(=O)N2CCN(c3ccc(F)cc3)CC2)oc2ccccc12` was tested, and the activation was inactive: -16.1%. In the case of `COc1ccc(-c2nnc(SCC(=O)N3CCCCC3)o2)cc1`, the activation was inactive: 4.09%. In the case of `CCOc1ccccc1-c1noc(CSc2nnc(-c3ccncc3)n2-c2ccc(F)cc2)n1`, the activation was inactive: -14.6%. In the case of `Cc1ccc(-n2ncc(C(=O)NCc3ccc4c(c3)OCO4)c2C2CCN(C(=O)OC(C)(C)C)CC2)cc1C`, the activation was inactive: -20.2%. For `Cc1ccc(NCc2cccn2-c2nnc(N3CCC(C(=O)NCc4ccccc4C)CC3)s2)cc1`, the activation was inactive: -33.6%. With `COc1ccc(CN2CCCN(CC(=O)Nc3ccc(Br)cc3F)S2(=O)=O)cc1` the activation was inactive: 12.8%. For `Cc1c(C(=O)N2CCC(C)CC2)c(S(=O)(=O)Nc2cccc(C#N)c2)c(C)n1C`, the activation was inactive: -8.9%. With `Cc1c(Cl)cccc1NC(=O)c1cc(-c2cccs2)on1` the activation was active: 91.4%. `CCOC(=O)c1c(C)[nH]c(C)c1S(=O)(=O)N(C)CC(=O)Nc1cccc(Cl)c1C` was tested, and the activation was inactive: 2.24%. `CC1=C(c2ccc(C)c(C)c2)S(=O)(=O)N=C1N1CCN(c2cccc(C)c2)C(C)C1` (configuration not stated) was tested, and the activation was inactive: -4.75%. `COc1ccc(C(=O)N2CCCCC2CCN2CCOCC2)cc1` (configuration not stated) was tested, and the activation was inactive: -0.804%. `CCOc1ccc(NC(=O)CC2Nc3cccc4cccc(c34)NC2=O)cc1` (configuration not stated) was tested, and the activation was active: 83.1%. `CN(C(=O)CSc1nc2ccc(NC(=O)COc3ccc(F)cc3)cc2s1)c1ccccc1` was tested, and the activation was inactive: -1.8%. For `O=C(c1ccccc1Cl)N1CCCC(c2nc3c(nnn3Cc3ccc(F)cc3F)c(=O)[nH]2)C1` (configuration not stated), the activation was inactive: -21.1%. For `CC(C)Sc1ncc(Cl)c(C(=O)Nc2nc3ccc(S(C)(=O)=O)cc3s2)n1`, the activation was inactive: 7.44%. For `Cc1cc(-c2ccc(S(=O)(=O)Nc3cccc(C(F)(F)F)c3)s2)on1`, the activation was inactive: -5.22%. For `Cn1c(=O)c2c(nc(/C=C/c3cccc(Cl)c3)n2C)n(C)c1=O`, the activation was inactive: 7.97%. `CCOC(=O)c1ccc(NC(=O)C2=C(C)C(=O)OC23CCCCCC3)cc1` was tested, and the activation was inactive: -35.5%. With `Cc1cc(C)c(NC(=O)C2CCN(C(=O)N3CC(C)Oc4ccc(Cl)cc43)CC2)c(C)c1` (configuration not stated) the activation was inactive: -11.6%. For `COc1ccc(NC(=O)c2cc3c(=O)n(Cc4cccs4)ccc3nc2C)c(OC)c1`, the activation was inactive: -15.9%. For `Cc1cc(C)cc(NS(=O)(=O)c2ccc(-c3cc(C)no3)s2)c1`, the activation was inactive: 0.128%. For `COc1ccc(NC(=O)Cn2c(=O)n(Cc3nc(C)no3)c(=O)c3cc4c(cc32)OCO4)cc1`, the activation was inactive: -6.08%. For `CC(=O)OCC(=O)Nc1cc(C#N)cc(NC(=O)COC(C)=O)c1Cl`, the activation was inactive: 11.8%. With `Cc1c(C(=O)N(C)C)sc2c1c(=O)n(-c1ccccc1C(F)(F)F)c(=O)n2Cc1ccccc1C#N` the activation was inactive: -12.3%. For `CN(C)CCCc1cc(C(=O)Nc2ccc(-c3ccncc3)cc2)ccc1O`, the activation was inactive: -7.62%. In the case of `NC1[C@H]2CN(c3nc4c(cc3F)c(=O)c(C(=O)O)cn4-c3ccc(F)cc3F)C[C@@H]12` (some centres not stated), the activation was inactive: 28.8%. With `Cc1ccc(-c2nc3cc(Cl)ccc3o2)cc1NC(=O)c1cc2ccccc2o1` the activation was inactive: -1.71%. With `COc1ccc(-c2nsc(NC(=O)COc3ccccc3OC)n2)cc1` the activation was inactive: 27.1%. `CC(C)Cc1nn2c(=O)cc(COC(=O)c3cccc(NC(=O)c4cccs4)c3)nc2s1` was tested, and the activation was inactive: -15.7%. In the case of `COc1ccccc1CNC(=O)CCCn1c(=O)c2ccccc2n(CC(=O)Nc2ccc(C)cc2Cl)c1=O`, the activation was inactive: -0.244%. For `Cc1ccccc1Cn1c(=O)n(CC2CCC(C(=O)N3CCC(C)CC3)CC2)c(=O)c2sccc21` (configuration not stated), the activation was inactive: -22.2%. With `CC[C@@H](CO)Nc1nc(NCc2ccccc2)c2ncn(C(C)C)c2n1` the activation was inactive: -5.33%. For `CCOC(=O)c1ccc2c(c1)sc1nc(-c3ccc(OCC)cc3)cn12`, the activation was inactive: -3.7%. For `COc1cccc(CNC(=O)Cn2c(=O)cc(C(F)(F)F)c3c(C)nn(C)c32)c1OC`, the activation was inactive: 16.7%. `O=C(NCCS(=O)(=O)N1CCN(c2ccccc2F)CC1)c1ccccc1C(F)(F)F` was tested, and the activation was inactive: -12.9%. In the case of `CCN(CC)CCCNC(=O)c1c2c(nc3ccccc13)C(=O)N(C1CCCCC1)C2`, the activation was inactive: 4.35%. With `Fc1ccc(F)c(Nc2c3c(nc4ccc(Cl)cc24)CCC3)c1` the activation was inactive: 30.4%. For `COc1ccc(NC(=O)CCc2nc3cccnc3n2-c2ccccc2)c(OC)c1`, the activation was inactive: 2.16%. With `COc1ccc(N2C(=O)C(CC(=O)Nc3ccc(Cl)cc3)N(Cc3ccc4c(c3)OCO4)C2=O)cc1` (configuration not stated) the activation was inactive: -2.99%. For `CCOC(=O)c1c(NC(=O)c2cc(=O)c3cc(Cl)ccc3o2)sc(C)c1C`, the activation was inactive: 39.3%. With `Cc1ccc(C)c(N2CCN(C(=O)CN3CCSc4ccccc43)CC2)c1` the activation was inactive: -15.9%. With `COc1cc(C(=O)Nc2ccccc2OCc2cc(=O)n3c(C)csc3n2)cc(OC)c1OC` the activation was inactive: 1.74%. With `CCOc1ccc(CCNC(=O)CSc2nnnn2-c2ccccc2Cl)cc1OCC` the activation was inactive: -5.93%. `COCCn1c(=N)c(C(=O)NCC2CCCO2)cc2c(=O)n3ccccc3nc21` (configuration not stated) was tested, and the activation was inactive: -4%. In the case of `CCN1CCN(C(c2ccc(C)cc2)c2sc3nc(-c4ccco4)nn3c2O)CC1` (configuration not stated), the activation was inactive: 45.6%. For `CCOc1ccc(CCNC(=O)CCCc2nnc3n(CCCOC)c(=O)c4sccc4n23)cc1`, the activation was inactive: -2.7%. `O=C1CC(c2ccccc2)Cc2[nH]c(=O)c(C(=O)Nc3ccc(F)cc3)cc21` (configuration not stated) was tested, and the activation was inactive: 0.803%. `Cc1c(C(=O)N2CCCCCC2)c(S(=O)(=O)Nc2ccc(OC(F)(F)F)cc2)c(C)n1C` was tested, and the activation was inactive: -6.21%.
